# Assay results taken from patent US11866509B2, “Humanized antibodies against CEACAM1” (Famewave Ltd., priority 2014, dated 2024).
# B1: CM-24: back-mutated humanized IgG4 anti human CEACAM1 monoclonal antibody; light chain SEQ ID NO: 52, heavy chain SEQ ID NO: 53 (antibody)
# heavy: QVQLVQSGAEVKKPGASVKVSCKASGYAFTNNLIEWVRQAPGQGLEWIGVINPGSGDTNYNEKFKGRVTMTADKSISTAYMELSRLRSDDTAVYYCARGDYYGGFAVDYWGQGTTVTVSSASTKGPSVFPLAPCSRSTSESTAALGCLVKDYFPEPVTVSWNSGALTSGVHTFPAVLQSSGLYSLSSVVTVPSSSLGTKTYTCNVDHKPSNTKVDKRV[letters of human IgG4 Fc with S228P (EU numbers) left out]
# light: DIQMTQSPSSLSASVGDRVTITCRTSQDIGNYLNWYQQKPGKAVKLLIYYTSRLHSGVPSRFSGSGSGTDYTLTISSLQPEDIATYFCQQGKSLPRTFGGGTKVEIKRTVAAPSVFIFPPSDEQLKSGTASVVCLLNNFYPREAKVQWKVDNALQSGNSQESVTEQDSKDSTYSLSSTLTLSKADYEKHKVYACEVTHQGLSSPVTKSFNRGEC
# Key:
# CEACAM1 = biological target: T1, CEACAM1 (Homo sapiens, UniProt P13688); experiment: Binding of CM-24 to CEACAM1 (pre-clinical summary)
# T1 sequence (P13688 35-526): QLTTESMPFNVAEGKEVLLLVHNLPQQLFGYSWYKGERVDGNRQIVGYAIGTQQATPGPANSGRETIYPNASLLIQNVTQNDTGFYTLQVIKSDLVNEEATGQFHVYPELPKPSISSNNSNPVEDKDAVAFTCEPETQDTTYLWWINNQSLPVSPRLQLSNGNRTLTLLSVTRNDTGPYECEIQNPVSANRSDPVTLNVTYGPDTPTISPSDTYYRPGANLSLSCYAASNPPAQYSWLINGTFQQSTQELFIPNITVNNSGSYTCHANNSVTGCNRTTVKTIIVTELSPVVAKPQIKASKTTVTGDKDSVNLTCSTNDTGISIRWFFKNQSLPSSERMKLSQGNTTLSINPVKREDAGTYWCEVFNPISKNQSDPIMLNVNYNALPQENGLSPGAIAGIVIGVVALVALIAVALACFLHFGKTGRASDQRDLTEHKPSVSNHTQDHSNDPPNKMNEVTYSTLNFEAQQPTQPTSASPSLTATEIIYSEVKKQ
# [1] = test system: human pancreatic cancer cells T3M4; experiment: Cytotoxicity of human LAK cells against pancreatic cancer cells, LDH release; format: cell-based; conditions: 0.1 μg/ml to 10 μg/ml CM-24, 24 hours
# Protocol: FIG. 10. Anti-CEACAM1 antibodies increase the cytotoxicity of human LAK cells against a human pancreatic cancer cells T3M4. Human LAK cells were incubated with CM-24 in different concentrations for 30 minutes at 37° C. Human pancreatic cancer cells T3M4 were added for an incubation of 24 hours. Results represent an average of % cytotoxicity ±SE as determined by classical LDH release assay from triplicate wells per treatment. * P≤0.05 paired T-test compared to effectors+target cells with medium only.
# • A. Anti-CEACAM1 antibodies increase the cytotoxicity of human LAK cells against human melanoma cells: PBMC cells were isolated from a healthy donor followed by activation with IL-2 (500 or 1000 units/ml) for 3 days to generate a population of human LAK cells. Then, the human LAK cells were incubated with 0.1 μg/ml, 0.5 μg/ml, 2.5 μg/ml, 5 μg/ml or 10 μg/ml of an anti-CEACAM1 antibody (CM-24) for 30 minutes at 37° C. Human melanoma cells (SKMEL28) were added for an incubation of 24 hours, after which cytotoxicity was determined. […] PBMC cells were isolated from a healthy donor followed by activation with IL-2 (500 units/ml) for 7 days to generate a population of human LAK cells. […] Granzyme B secretion was measured by ELISA. […] IFN-γ secretion was measured by ELISA.
molecule,measurement,setting,value
B1,binding to human CEACAM1,CEACAM1,high affinity and selective binding
same,cytotoxicity of human LAK cells,[1],significantly increases cytotoxicity
